Test results: the supplement of paper PMC10126150
Values marked as one replicate rest on one cluster of the flow cell; about a third of the high ones do not repeat.

System: ATP
Assay: switch fluorescence ratio, 500 uM ATP over buffer (Cy3 cluster intensity, sum of 5 cycles each) (fold (ratio)); higher = stronger signal-on switching upon ATP binding; sequences stand for … in TCGTCGGCAGCGTCAGATGTGTATAAGAGACAGTTTTTTTTTTTTTTTTTTTTTTTTT…TC
Details: aptamer strand: ATP DNA aptamer (quencher-CACCTGGGGGAGTATTGCGGAGGAAGG + anchor), 100 nM annealed; ATP concentration: 500 uM; one replicate
Outline: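 Cy3-labelled switching-strand clusters on a modified Illumina MiSeq flow-cell were annealed to 100 nM quencher-labelled ATP aptamer, imaged in selection buffer, then imaged after 15 min with 500 uM ATP at 22 °C. Five buffer/ATP cycles ran, with NaOH stripping and re-annealing between them. The fluorescence ratio is summed target-cycle over summed buffer-cycle Cy3 intensity per cluster, averaged per switch-domain sequence. Clusters outside 100-1000 RFU were excluded.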
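Note: ATP exposure 15 min at 22 °C before imaging.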

Sequence	switch fluorescence ratio
AGGACATAGG	1.03
TAGGGGTCA	1.02
ATATGTGTTC	0.966
GGCCGGAACG	0.994
CATGTGCGGG	0.987
CTCTAAGTAT	1.04
TGCGTCTGTA	0.998
CGGGGACAGT	1.03
AAATATCGCA	1.04
GTCGATCTGC	0.939
TCGCCTGATC	1.04
GCCCAATGT	1.01
TGCATCTGAC	1.09
TTTTAGTACG	1
GATACTTTGG	0.998
ATGGTCCTTG	0.981
GCCTCAGTGG	1.03
TGATGTCTGC	0.975
GTCGTATCGG	1.03
CGCGCACATT	1.16
CGAGGGCCAG	1.01
GAATCTGATC	0.992
TACGCGGGAT	1.04

Sequence	switch fluorescence ratio
ACGTAGTACG	1.06
AGGGATGGAG	1.02
CGCCTTGGGA	1.01
AAGAGTTACG	0.925
TCGGTTCTGC	1.08
ATAAAGAGGG	1.01
GGGTCCGCCT	0.999
ACACAGGGTG	1.04
GCTGCTGACC	1.01
AGCTGCTGTG	0.979
TATTTCGTCA	0.99
TGATTATAAA	1.04
AAAGCGTCTG	1.01
TGGCAGA	0.978
GCAATTGTAA	0.961
CTTGGACGGA	0.976
GGGAAATTTA	1
AGATTCTGG	0.961
CTAATGACAT	0.996
TATTTTACAA	1.01
TAAAGACAGT	1.03
AATTCTTCAA	1.04
CTTTATTGTT	0.966

Sequence	switch fluorescence ratio
ACTGACGGGA	1.38
AATGAATTT	0.971
TGTTCCTACG	2.25
CCAAGGCGTG	1.02
TTGTGATCCG	1.06
GAAAATAGCC	1.1
TTATGCCCTA	0.969
AAGCGAAAAC	1.1
AGAGATTTAC	1.01
GTGTAGGCTA	0.967
AGTTAACATA	1.04
CCAAAAGGGC	1.02
AGTCCCACGC	1.06
TCCCCGAATG	1.07
AGGGGTGGT	1.04
GCCGATACAA	1.25
GTGCACCGGA	1.01
CGAAATGATG	0.983
AACTAATCAT	1.01
CGATACACAT	1.04
TGAGTAGGT	0.972
GATTACTCGT	0.965
ACTTACTTTG	1.11

Sequence	switch fluorescence ratio
CGTCAACCTA	1.06
CGCAAGAGAT	1.1
AGTCCCCGGG	1.8
CCGAAGGGAA	1.04
GTCATGGTCG	0.787
ACTGTTGGGT	0.992
ATATGTCTAC	1.03
TTCGTGTTA	1
ACTTCATCTA	1.11
TAGGTCTTAG	0.978
CGAAGAGACG	1.01
GATTGTTT	0.972
GCAGCTAAGT	1.1
CTTGCCCTCG	1.01
GTTTCACGGC	0.996
CTGCCCGGAT	1.02
AAAGTTTTC	1.04
CAAACAACAA	0.942
ACGTGACAA	1.23
CCAATCGTGC	1.14
TAGAGCCGGT	1.02
GGTTTCAAGT	0.944
GAAAAAAGCC	1.01

Sequence	switch fluorescence ratio
CCTAGTCGTG	1.04
TATAGTTTGG	1.01
ATGCACTCCG	1.23
TCGAAGGGAA	0.997
CGGGGTAAAT	1.02
CACAGCACGG	1.59
CTGGATCTGG	1.04
TTCCTTATAG	0.958
CAGATGCGTT	0.982
AGAGGGGTGT	1.07
ATCTCTTCGG	1.03
CTTTGAAAGG	0.931
TAAAAGGCGT	0.982
GCTATTGCTG	0.97
ATGCCACTAC	1.14
GGTAAATCCG	1.03
CTATTTTTG	1.03
ACTAAGGCA	1.02
GTAGTCTTCA	1.05
TTACGTTCG	1.08
CCGTTACGGG	0.999
CGAGTAGGAC	1.06
ATATTCATTT	0.974

Sequence	switch fluorescence ratio
ACAGACGTGA	1.24
GGGAAAACGA	1.01
GGTAGCATGG	1.01
AGCCTCATTG	1.01
CAGACTGAAA	1.05
GTTTAGCTTT	0.999
TCGCTTTCGA	0.985
AAAAGAGAGC	1.14
TTTCAATCGG	1
AGCTGATTGG	1.01
CACGGGCCGA	0.993
ATATGCGCCA	0.997
AATTAATTCA	0.97
GAGGCAGGAG	1.15
TCCCATAAGA	1.04
TTTCTCGGGG	0.97
TTGGCCTTGC	1.11
GTTACCGATA	1.04
CGATCGTGAT	1.3
TTTCTGGCC	1.1
AATGAACCTT	1.72
ATACTCATCT	1.01
CGCGAGTTGT	1.06

Sequence	switch fluorescence ratio
CAATAAATCA	0.99
TAGGGTGATA	1.02
CGGGAGAAGG	1.09
GTTGAAGTAA	1.01
GCACGGGCTG	1.07
ATTGAGAACA	0.978
CAACGAAAGA	1.04
CAGGTCGCGT	1.01
CAGCTAAGGT	0.985
TGAACCTACG	1.27
TCACGTTGG	1
TCATATGACA	1.01
TACAATAAAA	1
AGGGGACCTT	1.04
TAGTGGGTAC	1.01
CAGGGGCATC	1.04
ACCGTACTGT	1.58
TTGGGTGCCA	0.995
AGAATAAAGA	0.983
